Out of some 310,000 compounds screened, about 14,000 (4.5%) showed an effect of 50% or more. Effects have a minus sign here. This is one part of the list.
Target: human ether-à-go-go-related gene (hERG) potassium channel (human, UniProt Q12809)
Assay: primary screen, population patch clamp on CHO cells stably expressing hERG
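Further: peak tail current of the secondary pulse compared with the same well before compound.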

Chain of human ether-à-go-go-related gene (hERG) potassium channel (Q12809 whole entry, looked up): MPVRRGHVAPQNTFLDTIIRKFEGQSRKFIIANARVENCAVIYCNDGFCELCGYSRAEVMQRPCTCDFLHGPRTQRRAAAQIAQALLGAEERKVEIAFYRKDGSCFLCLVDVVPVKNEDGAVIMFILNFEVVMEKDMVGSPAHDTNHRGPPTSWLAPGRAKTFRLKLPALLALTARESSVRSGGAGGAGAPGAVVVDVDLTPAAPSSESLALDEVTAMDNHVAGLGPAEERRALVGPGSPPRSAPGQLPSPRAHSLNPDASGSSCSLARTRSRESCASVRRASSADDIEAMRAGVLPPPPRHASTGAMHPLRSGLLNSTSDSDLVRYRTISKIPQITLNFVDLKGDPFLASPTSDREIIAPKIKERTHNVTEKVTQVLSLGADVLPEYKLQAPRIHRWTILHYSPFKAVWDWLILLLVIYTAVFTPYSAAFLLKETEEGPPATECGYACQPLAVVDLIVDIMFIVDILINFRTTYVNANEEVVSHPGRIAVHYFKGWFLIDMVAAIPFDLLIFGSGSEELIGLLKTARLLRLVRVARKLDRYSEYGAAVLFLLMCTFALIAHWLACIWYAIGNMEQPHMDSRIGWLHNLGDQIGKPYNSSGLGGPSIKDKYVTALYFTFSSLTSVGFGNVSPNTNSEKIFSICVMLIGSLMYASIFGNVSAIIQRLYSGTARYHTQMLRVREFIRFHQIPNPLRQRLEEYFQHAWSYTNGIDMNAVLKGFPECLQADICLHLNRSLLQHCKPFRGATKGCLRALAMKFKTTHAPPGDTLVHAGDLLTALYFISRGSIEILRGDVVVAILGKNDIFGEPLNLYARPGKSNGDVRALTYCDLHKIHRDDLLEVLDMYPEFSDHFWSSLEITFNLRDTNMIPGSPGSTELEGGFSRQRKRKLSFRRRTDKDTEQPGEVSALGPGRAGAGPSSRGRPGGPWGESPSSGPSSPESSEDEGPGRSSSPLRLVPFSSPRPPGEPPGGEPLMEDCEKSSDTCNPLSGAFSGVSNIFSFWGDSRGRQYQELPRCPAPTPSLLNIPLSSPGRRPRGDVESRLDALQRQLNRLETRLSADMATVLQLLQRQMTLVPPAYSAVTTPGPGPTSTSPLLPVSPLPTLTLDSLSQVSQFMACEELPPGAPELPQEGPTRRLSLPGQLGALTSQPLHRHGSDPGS

Compound | hERG current change (%, negative = inhibition) at 10uM
O=C(c1ccc(S(=O)(=O)N2CCCC2)cc1)N(Cc1ccco1)C1CCS(=O)(=O)C1 (stereo not drawn) | -10.3%
Cc1ccccc1NC(=S)N1CCC(NC(=O)c2ccco2)CC1 | -19.7%
CCN1CCN(C(=S)Nc2ccsc2C(=O)OC)CC1 | 6.04%
CCCCn1c(N)c(N(Cc2ccccc2OC)C(=O)COc2ccccc2OC)c(=O)[nH]c1=O | 3.21%
Cc1ccc(S(=O)(=O)N2CCN(C(=O)c3ccccc3OCc3c(C)noc3C)CC2)cc1 | -9.72%
Cc1ccc(NC(=O)COC(=O)c2ccc3c(c2)OCCO3)cc1S(=O)(=O)N1CCOCC1 | 6.16%
Cc1cc(C)nc(SC(C)CNS(=O)(=O)c2ccccc2)n1 (stereo not drawn) | 0.485%
COc1cc(NC(=S)NC2CC2)c(OC)cc1Cl | -1.86%
O=C1N(Cc2cccnc2)C[C@@H]2C[C@@H](c3cccc(C(F)(F)F)c3)N3CCC[C@@]123 | -10.3%
CN(Cc1ccco1)c1ncnc2ccc(-c3ccoc3)cc12 | -7.12%
COc1cccc(C(=O)O/N=C2\CCS(=O)(=O)c3sccc32)c1 | 39.6%
Nc1ccc2nc(-c3ccccn3)[nH]c2c1 | 9.21%
C#CCOCCOCCOCCNc1nc(N2CCN(C(=O)[C@H](CCC(=O)O)n3cc(C(N)CC(C)C)nn3)CC2)nc(N2CCN(C(=O)[C@H](Cc3ccc(O)cc3)n3cc(C(N)[C@H](C)CC)nn3)CC2)n1.Cl (stereo partly drawn) | -8.37%
CCOC(=O)c1c(C)[nH]c(C)c1C(=O)COC(=O)c1ccc([N+](=O)[O-])s1 | -28.1%
Cc1ccc2[nH]c3c(=O)n(CCc4cnc[nH]4)cnc3c2c1 | -9.8%
CC(C)c1csc(CN2CCN(CCc3ccccc3)C(CCO)C2)n1 (stereo not drawn) | -76%
Cl.O=C(OCCN1CCOCC1)c1ccc(OCCN2CCOCC2)cc1 | 6.18%
O=C(NCc1cccnc1)NC(C(F)(F)F)C(F)(F)F | 1.24%
O=C(NCC1CCCO1)c1cccc(Br)c1 (stereo not drawn) | -4.16%
O=C(O)c1cc(Br)ccc1NN=C1CCCCC1 | -1.51%
O=C1CC(c2ccccc2)Cc2nc(NCc3ccco3)ncc21 (stereo not drawn) | -17.3%

Compound | hERG current change (%, negative = inhibition) at 10uM
CCC(Oc1ccccc1)C(=O)N(C)CC(=O)N(CC(C)C)c1c(N)n(CC(C)C)c(=O)[nH]c1=O (stereo not drawn) | 10.2%
CCC(=O)N1CCN=C1SCc1cccc(C(F)(F)F)c1 | -33.5%
COc1ccccc1NC(=O)c1ccc(NC(=O)c2ccc(=O)[nH]c2)cc1 | -3.72%
CC(=O)Nc1ccc(NC(=O)[C@@H](NC(=O)N2C[C@H]3C[C@@H](C2)c2cccc(=O)n2C3)C(C)C)cc1 | -0.378%
CCOc1ccc(NC(=O)CN(C)C(=O)CN2C(=O)C3CCCCC3C2=O)cc1OCC (stereo not drawn) | 19.6%
COc1ccc(-n2nc(C(=O)NCC(=O)N(C)Cc3ccccc3)c3ccccc3c2=O)cc1OC | -9.49%
N=c1oc2ccccc2cc1C(=O)NC1CCCCCC1 | -23.7%
O=C(CN(C(=O)c1ccccc1Cl)N1C(=O)CCCC1=O)c1ccc(Cl)cc1 | 7.29%
CN1C(=O)c2cccc3c(S(=O)(=O)Nc4ccccn4)ccc1c23 | 9.38%
O=C(CCSc1nc2ccccc2o1)Nc1ccccc1 | 10.1%
Cc1ccccc1N(C(=O)c1ccccn1)C(C(=O)NCc1ccccc1)c1cccnc1 (stereo not drawn) | -4.96%
CN(C)CCCCCN(C)Cc1cc2ccccc2o1.Cl | 27.8%
Cc1ccc(/C=C/c2nc3ccccc3s2)s1 | 3.83%
CCC(C)(NC(=O)c1ccccn1)C(=O)NC1CCCCC1 (stereo not drawn) | 5.98%
Cc1ccc(S(=O)(=O)N/N=C/c2cc([N+](=O)[O-])ccc2O)cc1[N+](=O)[O-] | 11.9%
COc1ccc(S(=O)(=O)N2CCCCCC2)cc1C(=O)Nc1ccccn1 | 17.8%
COC(=O)c1ccc(NS(=O)(=O)c2ccc3c(c2)oc(=O)n3C)cc1 | 1.11%
CC(C)C[C@@H](C(=O)O)N(Cc1cccc(CN([C@@H](CC(C)C)C(=O)O)S(C)(=O)=O)c1)S(C)(=O)=O | 4.08%
CCNC(=O)COC(=O)c1csc2c1CCCC2 | -1.35%
COc1ccc(CCNC(=O)CSc2nc3c(c(=O)n(C)c(=O)n3C)n2C(C)C)cc1OC | -25.1%
O=C(NC1CCCC1)C(c1cccnc1)N(C(=O)c1ccco1)c1cccc(F)c1 (stereo not drawn) | 8.97%
